These results are taken from PubChem BioAssay AID360 (National Center for Advancing Translational Sciences (NCATS), 2006).

Each structure is given as a SMILES string. The campaign covered roughly 48,000 compounds. About 550 (1.1%) were called active. Not shown: some 4% with an inconclusive outcome. Rule as the data show it: active = potency below about 15 µM; inconclusive = mostly about 16 µM to 33 µM; inactive = weaker than that. Some of the results follow.
Potency is read from the fitted curve at half-maximal effect.

In this experiment the target is Lysosomal acid glucosylceramidase (Homo sapiens) (UniProt P04062). Description: Glucocerebrosidase.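 Also: the screen sought inhibitors.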 To be noted: purified enzyme, resorufin glucoside fluorescence (screen aimed at inhibitors), 20 min. Summed up: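 Normal human glucocerebrosidase (0.2 nM final) was assayed with resorufin β-D-glucopyranoside (30 uM final) in 50mM citric acid/KH2PO4, 10mM sodium taurocholate, 0.01% tween-20, pH 5.9. Compounds were titrated; fluorescence (Ex 548, Em 600) read after 20 min at RT.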
UniProt P04062, sequence (P04062 whole entry, looked up): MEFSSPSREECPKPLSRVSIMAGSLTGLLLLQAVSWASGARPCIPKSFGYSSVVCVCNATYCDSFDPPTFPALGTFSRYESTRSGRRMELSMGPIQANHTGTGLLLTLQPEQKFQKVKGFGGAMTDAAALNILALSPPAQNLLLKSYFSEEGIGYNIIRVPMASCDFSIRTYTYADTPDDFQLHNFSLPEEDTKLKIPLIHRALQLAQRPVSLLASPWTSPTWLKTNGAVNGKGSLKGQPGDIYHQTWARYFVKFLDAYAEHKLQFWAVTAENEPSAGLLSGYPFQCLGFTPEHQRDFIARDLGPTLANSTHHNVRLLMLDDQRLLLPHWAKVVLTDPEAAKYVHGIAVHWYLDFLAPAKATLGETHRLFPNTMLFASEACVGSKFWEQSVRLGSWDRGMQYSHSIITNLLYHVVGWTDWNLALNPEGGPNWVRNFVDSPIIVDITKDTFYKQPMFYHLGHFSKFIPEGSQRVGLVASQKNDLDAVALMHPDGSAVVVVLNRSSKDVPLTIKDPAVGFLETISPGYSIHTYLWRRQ
Regarding `O=C(NCc1ccco1)C(C(=O)c1ccccc1)n1ccccc1=O` (stereo not given), the Potency was inactive: > 76.9 µM.
The figure for `Cn1c(=O)c2c(nc(CN3CCCCC3)n2CCCc2ccccc2)n(C)c1=O` is inactive: > 76.9 µM; for `N#CC1=C(N)Oc2n[nH]c(-c3cccs3)c2C1c1ccsc1` (stereo not given) it is inactive: > 76.9 µM; for `COc1ccccc1NC(=O)CS(=O)(=O)c1cccc2nsnc12` it is inactive: > 76.9 µM.
Under `COc1cccc(NC(=O)N2CCCC2C(=O)NC2CC2)c1` (stereo not given) stands inactive: > 76.9 µM.
Under `CC(C(=O)O)c1ccc(-c2ccccc2)c(F)c1` (stereo not given) stands inactive: > 76.9 µM; under `Cc1cc2nc3c(nc2cc1C)C1(C(=O)O)CCC3(C)C1(C)C` (stereo not given), inactive: > 76.9 µM.
Consider `COc1ccccc1N1CCN(C(CNS(=O)(=O)c2cc(F)ccc2F)c2cccnc2)CC1` (stereo not given), for which the Potency is inactive: > 76.9 µM.
Under `CC1=Nn2c(nnc2-c2n[nH]c3c2CCC3)SC1` stands inactive: > 76.9 µM.
The figure for `Cn1c(=O)c2c(nc(SC3C(=O)CC(C)(C)CC3=O)n2C)n(C)c1=O` is inactive: > 76.9 µM.
The figure for `c1ccc2oc(SCc3cn4ccsc4n3)nc2c1` is inactive: > 76.9 µM; for `CCOc1ccc2nc(SCC#N)c(C#N)cc2c1` it is inactive: > 76.9 µM.
In the case of `CCN(CC)S(=O)(=O)c1csc(C(=O)NC2CCCCC2)c1`, the Potency was inactive: > 76.9 µM.
As for `Cc1ccc(-c2csc3nnc(SCC(=O)NCc4ccc5c(c4)OCO5)n23)cc1`, the Potency is inactive: > 76.9 µM.
Under `COC(=O)c1c(=O)n(O)c2ccc(OC)cc2[n+]1[O-]` stands inactive: > 76.9 µM.
The figure for `CCCn1c(O)c(CN2CCCC(C)C2)c(C)c(C#N)c1=O` (stereo not given) is inactive: > 76.9 µM; for `CC(C)C(=O)Nc1cccc(C(=O)Nc2nncs2)c1` it is “inactive”; for `Cc1onc(-c2c(Cl)cccc2Cl)c1C(=O)NCCN1CCOCC1` it is inactive: > 76.9 µM.
Regarding `Cc1nc(N)sc1Cc1ccc2c(c1)OCO2`, the Potency was inactive: > 76.9 µM.
Under `O=C(c1ccc(C#Cc2ccccc2)o1)N1CCN(c2ccccn2)CC1` stands inactive: > 76.9 µM; under `O=c1cc[nH]c2c(C(F)(F)F)cccc12`, inactive: > 76.9 µM; under `CCN1C(=O)/C(=C\N2CCN(C)CC2)SC1=S`, inactive: > 76.9 µM.
The figure for `COc1cccc(C2c3c(oc4ccccc4c3=O)C(=O)N2CCCN(C)C)c1OC` (stereo not given) is inactive: > 76.9 µM.
Under `Cc1cccc(-n2cnc3c(c2=O)c2nc4ccccc4nc2n3Cc2ccco2)c1` stands inactive: > 76.9 µM; under `COc1cc(C)c(C(N)=O)c(OC)n1`, inactive: > 76.9 µM.
With `C=CCN(CC=C)C(=O)Cc1ccc(F)cc1`, the Potency is inactive: > 76.9 µM.
In the case of `O=C(Nc1ccc(N2CCN(C(=O)c3ccccc3)CC2)cc1)c1cc2ccccc2o1`, the Potency is inactive: > 76.9 µM.
`CN1CCN(CC#CC2(O)CCCCC2)CC1`: the Potency was inactive: > 76.9 µM.
The figure for `CC(=O)c1c(C(C)=O)c(C)n(-c2ccc(C(=O)O)cc2)c1C` is inactive: > 76.9 µM; for `Nn1c(SCC(=O)N2CCCCC2)nnc1-c1ccncc1` it is inactive: > 76.9 µM.
The figure for `COc1ccc(NCc2nnc(SCC(=O)Nc3cccc(C)c3)o2)cc1` is inactive: > 76.9 µM; for `CCC(C)NC(=O)CN(c1cc(C)ccc1OC)S(C)(=O)=O` (stereo not given) it is inactive: > 76.9 µM.
The entry for `CCOc1ccc(C(CC(=O)O)NS(=O)(=O)c2ccc(C)cc2)cc1OC` (stereo not given) is “inactive”; for `O=C(CCSc1ccccc1)N1CCOCC1` it is inactive: > 76.9 µM.
As to `Cc1nc2nc(COc3ccccc3)nn2c(C)c1Cl`, the Potency is inactive: > 76.9 µM.
For `CCOC(=O)c1ccc(Nc2cc(C)nc3ncnn23)cc1`, the Potency was inactive: > 76.9 µM.
Turning to `COc1ccc(OCCSc2nnc3sc4ccccc4n23)cc1`, the Potency is inactive: > 76.9 µM.
Under `N#CC1=C(SCc2ccccc2Cl)NC(=O)C(C(N)=O)C1` (stereo not given) stands inactive: > 76.9 µM.
`Cn1c(/C(C#N)=C(\O)CN2CCN(Cc3ccccc3)CC2)nc2ccccc21`: the Potency is inactive: > 76.9 µM.
The figure for `CC1CCN(S(=O)(=O)c2ccc(NC(=O)CN3CCN(c4ccccc4)CC3)cc2)CC1` is inactive: > 76.9 µM; for `CCOC(=O)N1CCN(CC(O)COc2c(OC)cccc2OC)CC1` (stereo not given) it is inactive: > 76.9 µM.
Under `CC(C)(C)NC(=O)C(c1ccccc1F)N(Cc1ccco1)C(=O)c1csnn1` (stereo not given) stands inactive: > 76.9 µM; under `COC(=O)C1CCN(c2nc3ccccc3nc2C(C#N)C(=O)OCC(C)C)CC1` (stereo not given), inactive: > 76.9 µM; under `O=C(NCCCN1CCN(c2cccc(Cl)c2)CC1)c1ccc(N2CCCC2=O)cc1`, inactive: > 76.9 µM.
Under `C=CCn1sc(N)c(C(=O)OCC)c1=S` stands inactive: > 76.9 µM; under `O=C1NCCN1Cc1ccccc1F`, inactive: > 76.9 µM.
Consider `Cc1cc(NC(=O)c2ccccc2NS(=O)(=O)c2c(C)c(C)cc(C)c2C)no1`, for which the Potency was inactive: > 76.9 µM.
The figure for `O=c1ccnc(S/C=C/c2ccccc2)[nH]1` is inactive: > 76.9 µM; for `CC(OC(=O)c1cc2sccc2n1C)C(=O)NCCc1ccccc1` (stereo not given) it is inactive: > 76.9 µM.
For `Cc1nn(C(=O)c2ccco2)c(C)c1CN1C(=O)c2ccccc2C1=O`, the Potency was inactive: > 76.9 µM.
On to `CCN(CC)C(=O)c1cc(-c2ccccc2OC)on1`, for which the Potency was inactive: > 76.9 µM.
The figure for `NC(=O)CC1(CC(=O)O)CCCCC1` is inactive: > 76.9 µM; for `Cc1noc(NS(=O)(=O)c2ccc(N3Cc4ccccc4C3=O)cc2)c1C` it is inactive: > 76.9 µM; for `NC(=O)CSc1nc2scc(-c3ccco3)c2c(=O)n1-c1ccccc1` it is inactive: > 76.9 µM.
For the compound `Cc1ccc(-c2nn3c(-c4ccco4)nnc3c3ccccc23)cc1S(=O)(=O)NCC1CCCO1` (stereo not given), the Potency was inactive: > 76.9 µM.
Under `NC(=O)c1ccc(-n2nnnc2Oc2ccccc2)cc1` stands inactive: > 76.9 µM; under `CC(c1ccccc1)N1CC(C(=O)NC2CCCC2)CC1=O` (stereo not given), inactive: > 76.9 µM.
As to `CCCCC(=O)Nc1ccc(NC(=O)C2CC2)nc1`, the Potency was inactive: > 76.9 µM.
The figure for `Cc1c(C(O)CN2CCN(Cc3ccc4c(c3)OCO4)CC2)c2ccccc2n1C` (stereo not given) is inactive: > 76.9 µM.
The figure for `COC(=O)[C@H](Cc1ccccc1)NC(=O)N1CCCCC1C` (stereo not given in full) is inactive: > 76.9 µM.
